# The other results are listed elsewhere or left out.
# Experiments:
# Assay in all cases: glycan array binding signal (z-score within array); higher = stronger binding
# Conditions in all cases: glycan notation: IUPAC condensed, linker removed; mutation: A146Q
# [1] = target: Gal(b1-4)GlcNAc(b1-3)Gal(b1-4)[Fuc(a1-3)]GlcNAc(b1-3)Gal(b1-4)[Fuc(a1-3)]GlcNAc
# How it was run: (§1)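 Negative Z-scores can be read as non-binding. The Z-score is calculated within each array and then averaged across arrays of one protein sequence at different concentrations or buffers and across linkers. Arrays, 3228 in all, were curated from the Consortium for Functional Glycomics database and kept only where the protein sequence was available.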
# [2] = target: Gal(b1-4)GlcNAc(b1-3)GalNAc
# How it was run: as §1
# [3] = target: Gal(b1-4)GlcNAc(b1-3)[Gal(b1-4)GlcNAc(b1-6)]Gal(b1-4)GlcNAc
# How it was run: as §1
# [4] = target: Gal(b1-4)GlcNAc(b1-3)[Gal(b1-4)GlcNAc(b1-6)]GalNAc
# How it was run: as §1
# [5] = target: Gal(b1-4)GlcNAc(b1-3)[GlcNAc(b1-6)]Gal(b1-4)GlcNAc
# How it was run: as §1
# [6] = target: Gal(b1-4)GlcNAc(b1-6)Gal(b1-4)GlcNAc
# How it was run: as §1
# [7] = target: Gal(b1-4)GlcNAc(b1-6)GalNAc
# How it was run: as §1
# [8] = target: Gal(b1-4)GlcNAc(b1-6)[Gal(b1-3)]GalNAc
# How it was run: as §1
# [9] = target: Gal3S(b1-3)GalNAc
# How it was run: as §1
# [10] = target: Gal3S(b1-3)GlcNAc
# How it was run: as §1
# [11] = target: Gal3S(b1-3)[Fuc(a1-4)]GlcNAc
# How it was run: as §1
# [12] = target: Gal3S(b1-4)Glc
# How it was run: as §1
# [13] = target: Gal3S(b1-4)Glc6S
# How it was run: as §1
# [14] = target: Gal3S(b1-4)GlcNAc
# How it was run: as §1
# [15] = target: Gal3S(b1-4)GlcNAc6S
# How it was run: as §1
# [16] = target: Gal3S(b1-4)[Fuc(a1-3)]Glc
# How it was run: as §1
# [17] = target: Gal3S(b1-4)[Fuc(a1-3)]Glc6S
# How it was run: as §1
# [18] = target: Gal3S4S(b1-4)GlcNAc
# How it was run: as §1
# [19] = target: Gal3S6S(b1-4)GlcNAc
# How it was run: as §1
# [20] = target: Gal3S6S(b1-4)GlcNAc6S
# How it was run: as §1
# [21] = target: Gal4S(b1-4)GlcNAc
# How it was run: as §1
# [22] = target: Gal4S6S(b1-4)GlcNAc
# How it was run: as §1
# [23] = target: Gal6S(b1-4)Glc
# How it was run: as §1
# [24] = target: Gal6S(b1-4)Glc6S
# How it was run: as §1
# [25] = target: Gal6S(b1-4)GlcNAc
# How it was run: as §1
# [26] = target: Gal6S(b1-4)GlcNAc6S
# How it was run: as §1
# [27] = target: GalNAc(a1-3)Gal
# How it was run: as §1
# [28] = target: GalNAc(a1-3)GalNAc
# How it was run: as §1
# [29] = target: GalNAc(a1-3)GalNAc(a1-3)Gal(a1-4)Gal(b1-4)GlcNAc
# How it was run: as §1
# [30] = target: GalNAc(b1-3)Gal
# How it was run: as §1
# [31] = target: GalNAc(b1-3)Gal(a1-4)Gal(b1-4)GlcNAc
# How it was run: as §1
# [32] = target: GalNAc(b1-3)Gal(a1-4)Gal(b1-4)GlcNAc(b1-3)Gal(b1-4)Glc
# How it was run: as §1
# [33] = target: GalNAc(b1-3)Gal(a1-6)Gal(b1-4)Glc
# How it was run: as §1
# [34] = target: GalNAc(b1-3)GalNAc
# How it was run: as §1
# [35] = target: GalNAc(b1-4)GlcNAc
# How it was run: as §1
# [36] = target: GalNAc(b1-4)GlcNAc(b1-2)Man(a1-3)[GalNAc(b1-4)GlcNAc(b1-2)Man(a1-6)]Man(b1-4)GlcNAc(b1-4)GlcNAc
# How it was run: as §1
# [37] = target: Glc(a1-4)Glc
# How it was run: as §1
binder,measurement,setting,value
"Gal 3 (Homo sapiens), P17931 (protein) MADNFSLHDALSGSGNPNPQGWPGAWGNQPAGAGGYPGASYPGAYPGQAPPGAYPGQAPPGAYHGAPGAYPGAPAPGVYPGPPSGPGAYPSSGQPSAPGAYPATGPYGAPAGPLIVPYNLPLPGGVVPRMLITILGTVKPNANRIQLDFQRGNDVAFHFNPRFNENNRRVIVCNTKLDNNWGREERQSVFPFESGKPFKIQVLVEPDHFKVAVNDAHLLQYNHRVKKLNEISKLGISGDIDLTSASYTMI",glycan array binding signal (z-score),[1],-0.192
same,glycan array binding signal (z-score),[2],-0.187
same,glycan array binding signal (z-score),[3],-0.086
same,glycan array binding signal (z-score),[4],-0.17
same,glycan array binding signal (z-score),[5],0.13
same,glycan array binding signal (z-score),[6],-0.186
same,glycan array binding signal (z-score),[7],-0.192
same,glycan array binding signal (z-score),[8],-0.186
same,glycan array binding signal (z-score),[9],-0.144
same,glycan array binding signal (z-score),[10],0.653
same,glycan array binding signal (z-score),[11],-0.2
same,glycan array binding signal (z-score),[12],-0.193
same,glycan array binding signal (z-score),[13],0.794
same,glycan array binding signal (z-score),[14],0.015
same,glycan array binding signal (z-score),[15],0.851
same,glycan array binding signal (z-score),[16],-0.195
same,glycan array binding signal (z-score),[17],-0.195
same,glycan array binding signal (z-score),[18],-0.195
same,glycan array binding signal (z-score),[19],-0.195
same,glycan array binding signal (z-score),[20],-0.168
same,glycan array binding signal (z-score),[21],-0.13
same,glycan array binding signal (z-score),[22],-0.202
same,glycan array binding signal (z-score),[23],-0.157
same,glycan array binding signal (z-score),[24],-0.196
same,glycan array binding signal (z-score),[25],-0.18
same,glycan array binding signal (z-score),[26],-0.192
same,glycan array binding signal (z-score),[27],-0.104
same,glycan array binding signal (z-score),[28],-0.193
same,glycan array binding signal (z-score),[29],-0.185
same,glycan array binding signal (z-score),[30],-0.2
same,glycan array binding signal (z-score),[31],-0.203
same,glycan array binding signal (z-score),[32],-0.179
same,glycan array binding signal (z-score),[33],-0.184
same,glycan array binding signal (z-score),[34],-0.182
same,glycan array binding signal (z-score),[35],-0.183
same,glycan array binding signal (z-score),[36],-0.194
same,glycan array binding signal (z-score),[37],-0.2
